Measured values reported in PubChem BioAssay.
Inconclusive results, whose numbers are uncertain, are shown with a selection of clear calls. Active and inactive are the calls of the source.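 How the source made its calls, unless noted: active means viability at or under a set limit in both replicates, limit being median viability minus 3 SD (cut at about 48% in these data, passing the limit was not always enough); inconclusive means at or under the limit in just one replicate; inactive means at or above the limit in both replicates.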

Key:
[1] = HUVEC growth inhibition – cell-based, human, primary screen (AID 575;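 active means viability at or below 30% in both replicate assays; inconclusive means viability at or below 30% in just one of the two assays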;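 further: 100% = median of untreated cell wells with 0.1% DMSO on each plate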); details: HUVEC proliferation, CellTiter-Glo luminescence, 72 h; at 10 µM; hits give low values
Summary of the method: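 System: primary human umbilical vein endothelial cells; Quantity: 1250 endothelial cells in each well; Buffer or medium: supplemented EBM, 2% fetal bovine serum; Doses: one dose, 10 µM final, 0.1% DMSO; Incubation: 72 h compound incubation; Technique: ATP-based CellTiter-Glo luminescent read; Evaluation: percent of median DMSO-control luminescence; Controls: vehicle and MePR control wells.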

[2] = H69AR cell proliferation blockers – human, duplicate replicates, primary screen (AID 580); details: H69AR lung tumor cells viability, ATP luminescence, 72 h; at 10 µM; hits give low values;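 further: 100% = mean luminescence of untreated wells and 0% = no signal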

| Compound | viability [1] | viability [2] |
| --- | --- | --- |
| Cc1nn(-c2nc3ccccc3s2)c(C)c1Oc1ccccc1O | active: 20.3% | inconclusive: 60% |
| CCOCC(=O)Nc1nc2ccc(OC)cc2s1 | inactive: 93.9% | inactive: 90.4% |
| O=C(CNCCC1=CCCCC1)Nc1ccccc1N1CCCCC1 | inconclusive: 23.6% | inconclusive: 61.6% |
| OCCN1CCN(CCCN2c3ccccc3Sc3ccc(Cl)cc32)CC1 | active: 1.56% | inconclusive: 1.41% |
| C=C(C)COc1ccc(-c2nc(N)ncc2-c2ccc(OC)cc2)c(O)c1 | inconclusive: 21.9% | inconclusive: 33.2% |
| CCCCCC(=O)O[C@]1(C(C)=O)CC[C@H]2[C@@H]3CCC4=CC(=O)CC[C@]4(C)[C@H]3CC[C@@]21C | active: 4.16% | inconclusive: 23.1% |
| CCOC(=O)c1ccc(NC(=O)CCc2nc(-c3ccc(C)cc3)no2)cc1 | inactive: 38% | inactive: 94.3% |
| CCOC(=O)c1nnc2cc(-c3ccc(Br)cc3)nn2c1C | inactive: 70.3% | inconclusive: 49.7% |
| Cc1ccc2[nH]c3c(c2c1)CN(C(=O)CN1CCN(c2cccc(C)c2C)CC1)CC3 | inconclusive: 36.2% | inconclusive: 31% |
| CCn1c2ccccc2c2cc(N)ccc21 | inconclusive: 39.6% | inconclusive: 50% |
| Clc1ccc(C2=Nn3c(nnc3-c3n[nH]c4c3CCC4)SC2)cc1Cl | inconclusive: 22.4% | active: 9% |
| C=C1[C@@H](C)C2[C@H](Cc3ccccc3)NC(=O)[C@]23OC(=O)CC[C@H](O)CCC[C@H](C)C/C=C/[C@H]3[C@@H]1O (some centres not stated) | active: 13.1% | inconclusive: 31.9% |
| CC(C)Cn1c2c(c(O)c(C(=O)Nc3ncccc3O)c1=O)CCCC2 | inconclusive: 52.5% | inconclusive: 52.4% |
| O=C(CSc1nnnn1-c1ccccc1)Nc1nsc(-c2ccc(Cl)cc2)n1 | inconclusive: 51.7% | inconclusive: 54% |
| CCn1c(SCc2nc(-c3cccs3)no2)nnc1-c1c[nH]c2ccccc12 | inconclusive: 45.1% | inactive: 78.8% |
| COc1ccc(Cl)cc1N1CCN(CCNC(=O)Nc2ccccc2C)CC1 | inconclusive: 56.3% | inconclusive: 48.7% |
| Cc1ccc(O)c(-c2cc3ccccc3[nH]2)c1 | inconclusive: 43.9% | inactive: 70.2% |
| O=C(CCCCCn1c(=S)[nH]c2cc3c(cc2c1=O)OCO3)N1CCN(Cc2ccccc2)CC1 | inconclusive: 44.4% | inconclusive: 62.7% |
| Oc1cccc(Nc2nc(NCC3CCCO3)c3ccccc3n2)c1 (configuration not stated) | inconclusive: 34.4% | active: 22.1% |
| COC(=O)Nc1nc2ccc(Sc3ccccc3)cc2[nH]1 | inconclusive: 26.2% | inconclusive: 11.7% |
| CC1CCCN(S(=O)(=O)c2ccc(C(=O)Nc3nnc(-c4ccccc4Cl)o3)cc2)C1 (configuration not stated) | active: 11.1% | active: 18.9% |
| O=C(Nc1ccc2nn(-c3ccccc3)nc2c1)c1ccc(Br)o1 | inconclusive: 58% | active: 9.49% |
| CC(C)Cc1nc(N2CCN(C(=O)c3ccco3)CC2)c(C#N)c2c1CCC2 | inconclusive: 49.5% | inactive: 84.5% |

| Compound | viability [1] | viability [2] |
| --- | --- | --- |
| CC(C)Cn1c(N)c(C(=O)NCc2cccs2)c2nc3ccccc3nc21 | inconclusive: 17.8% | active: 12% |
| COC(=O)c1ccc(-c2ccco2)n1Cc1nc(-c2ccc(OC)c(OC)c2)oc1C | active: 25.9% | active: 48.8% |
| COC(=O)c1cc(Br)c(=O)n(-c2nccs2)c1 | inactive: 107% | inactive: 96.5% |
| Cc1cc(O)c(-c2cc(C(=O)Nc3ccc(S(=O)(=O)N4CCOCC4)cc3)[nH]n2)cc1C | inconclusive: 22.2% | active: 37.6% |
| Cc1nc2ccccc2c(=O)n1NC(=O)c1c(O)c2c(n(CC(C)C)c1=O)CCCC2 | inactive: 92% | inconclusive: 49.1% |
| CN1CCc2nc(SCCOc3ccccc3)c(C#N)cc2C1 | inconclusive: 42.4% | inactive: 84.8% |
| N#Cc1cc2ccc(N3CCOCC3)cc2cc1C#N | active: 4.27% | inconclusive: 43.4% |
| Cc1nc2cc(N3CCCCC3)c(NC(=O)c3cccnc3)cc2c(=O)n1Cc1ccccc1 | inconclusive: 32% | active: 28.9% |
| COc1cccc(CN2C(=O)C3(C(C#N)=C(N)OC4=C3C(=O)CCC4)c3ccccc32)c1 (configuration not stated) | inconclusive: 57.8% | inconclusive: 10.6% |
| COC(=O)c1ccc2c(=O)n(Cc3ccco3)c(SCC(=O)Nc3ccc(C)c(Cl)c3)nc2c1 | inconclusive: 18% | active: 8.06% |
| COCc1cc(=O)[nH]c(Nc2nc3ccccc3o2)n1 | inconclusive: 28.8% | active: 30.3% |
| Cc1ccc(S(=O)(=O)N2CCOCC2)cc1C(=O)Nc1ccc(-c2cn3ccsc3n2)cc1 | inactive: 58.7% | inconclusive: 70.7% |
| Cc1cccc(Nc2ncc3c(n2)CC(c2ccco2)CC3=O)c1 (configuration not stated) | inconclusive: 32.6% | inactive: 75.5% |
| CC(=O)C(Sc1ncnc2c1nnn2-c1ccc(F)cc1)C(=O)N(C)C (configuration not stated) | inconclusive: 52.4% | inconclusive: 48.7% |
| CCOc1ccccc1NC(=O)C1CCCN(S(=O)(=O)c2cccc3cccnc23)C1 (configuration not stated) | inconclusive: 45.9% | inactive: 78.1% |
| Cn1c(=O)[nH]c(=O)c2c1nc(CN1CCN(c3cccc(Cl)c3)CC1)n2CCc1ccccc1 | inconclusive: 35.2% | inconclusive: 23.5% |
| Cc1cc(-n2c(C)cc(C(=O)CSc3nnnn3-c3ccc(Cl)cc3)c2C)no1 | inconclusive: 27.1% | inconclusive: 49.2% |
| CCOC(=O)c1cc(-c2ccc(Cl)s2)nc2c1c(C)nn2C | inconclusive: 21.4% | inconclusive: 35.8% |
| CCCc1ccc(Oc2cn[nH]c2-c2ccc(O)c(C)c2O)cc1 | inconclusive: 29.5% | inconclusive: 8.33% |
| CN(C)c1ccc2c(c1)OC(N)=C(C#N)C2c1cccc(F)c1 (configuration not stated) | active: 17.2% | active: 34.7% |
| O=C(Nc1ccc2oc(Cc3ccc(Cl)cc3)nc2c1)c1cccnc1 | inconclusive: 44% | active: 37.9% |
| O=S(=O)(Nc1cccc2ncccc12)c1cccs1 | active: 23.9% | active: 1.71% |
| Cc1csc2ncc(C(=O)Nc3ccccc3Cl)c(=O)n12 | inactive: 66.8% | inconclusive: 48.3% |
